According to a collection of fitness landscapes (doi:10.1126/science.1257360):
This is one part of the list.

B1: PhoQ; a variant is named by its letters at X, in order, P23837 (parent)
chain: MKKLLRLFFPLSLRVRFLLATAAVVLVLSLAYGMVALIGYSVSFDKTTFRLLRGESNLFYTLAKWENNKLHVELPENIDKQSPTMTLIYDENGQLLWAQRDVPWLMKMIQPDWLKSNGFHEIEADVNDTSLLLSGDHSIQQQLQEVREDDDDAEMTHSVAVNVYPATSRMPKLTIVVVDTIPVELKSSYMVWSWFIYVLSANLLLVIPLLWVAAWWSLRPIEALAKEVRELEEHNRELLNPATTRELTSLVRNLNRLLKSERERYDKYRTTLTDLTHSLKTPLXXLQXXLRSLRSEKMSVSDAEPVMLEQISRISQQIGYYLHRASMRGGTLLSRELHPVAPLLDNLTSALNKVYQRKGVNISLDISPEISFVGEQNDFVEVMGNVLDNACKYCLEFVEISARQTDEHLYIVVEDDGPGIPLSKREVIFDRGQRVDTLRPGQGVGLAVAREITEQYEGKIVAGESMLGGARMEVIFGRQHSAPKDE

Variants of: B1
Test: enrichment ratio after two sorts for PhoP signalling (ratio (wild type AVST 3.29)); higher = more functional
Conditions: with PhoP (E. coli)

Variant	enrichment ratio
RFNE	≤ 0.25
RRSH	1.39
DQPL	≤ 0.25
SLNG	0.339
QGFI	≤ 0.25
QCVF	≤ 0.25
MVRF	≤ 0.25
DIVQ	≤ 0.25
PDMC	≤ 0.25
KFEV	≤ 0.25
VWMR	≤ 0.25
FQKT	≤ 0.25
HHSW	≤ 0.25
VWMP	≤ 0.25
AVTV	12.1
PRCH	≤ 0.25
QNRQ	≤ 0.25
VCTY	≤ 0.25
TNHM	≤ 0.25
WTSC	≤ 0.25
LCPN	≤ 0.25
KNVH	≤ 0.25
RNPD	≤ 0.25
FQLE	4.96
IYKW	≤ 0.25

Variant	enrichment ratio
TCEF	13.2
DPNG	≤ 0.25
DRYI	≤ 0.25
FKYW	≤ 0.25
YWFY	≤ 0.25
DSIG	≤ 0.25
YQQH	≤ 0.25
GWGH	≤ 0.25
LIDD	≤ 0.25
FTYY	≤ 0.25
NMPT	≤ 0.25
PQKM	≤ 0.25
QDWM	≤ 0.25
ISSY	≤ 0.25
MDIG	≤ 0.25
GKRM	≤ 0.25
GIGC	1.69
ELLL	2.43
IKMM	≤ 0.25
DHGW	≤ 0.25
ELVH	≤ 0.25
SKIL	2.84
FPPP	≤ 0.25
SKVI	9.59
GASC	≤ 0.25

Variant	enrichment ratio
DSGH	≤ 0.25
EKHP	≤ 0.25
PGLE	≤ 0.25
ANVE	≤ 0.25
FQNF	≤ 0.25
TQSD	7.88
CLNL	≤ 0.25
VHIY	≤ 0.25
TDTN	≤ 0.25
PIHN	≤ 0.25
WYNS	≤ 0.25
YSGL	≤ 0.25
WPIN	≤ 0.25
ATEN	≤ 0.25
NPVL	≤ 0.25
SYRH	≤ 0.25
NACP	≤ 0.25
YYMI	≤ 0.25
FRKD	≤ 0.25
GPGW	≤ 0.25
FTFD	≤ 0.25
GNGF	≤ 0.25
QHLT	≤ 0.25
IHLD	≤ 0.25
VCFC	≤ 0.25

Variant	enrichment ratio
KLGS	≤ 0.25
NGRN	≤ 0.25
MYNM	≤ 0.25
WAIL	≤ 0.25
KSQR	≤ 0.25
GTSP	≤ 0.25
GDIC	3.68
AAMR	≤ 0.25
PPLQ	≤ 0.25
TMNA	24.8
LHQT	≤ 0.25
PKMD	≤ 0.25
IPHE	≤ 0.25
FYKF	≤ 0.25
GMKF	0.412
LFMT	≤ 0.25
MPFI	≤ 0.25
YYIG	≤ 0.25
EFVK	≤ 0.25
GGFE	≤ 0.25
QFTE	≤ 0.25
KFTW	≤ 0.25
IFEA	≤ 0.25
HDWT	≤ 0.25
KTTR	≤ 0.25

Variant	enrichment ratio
ESDD	≤ 0.25
YERY	≤ 0.25
HQGW	≤ 0.25
QGWF	18.8
LGHT	≤ 0.25
SCCQ	13.2
AVAG	4.16
APVM	≤ 0.25
TVYD	≤ 0.25
QLTW	≤ 0.25
VFTK	≤ 0.25
GYHE	≤ 0.25
WPTI	≤ 0.25
ECTG	≤ 0.25
RNVG	≤ 0.25
SWDT	≤ 0.25
YIVQ	≤ 0.25
EIPY	≤ 0.25
MNIL	2.73
HFAI	≤ 0.25
FVMS	≤ 0.25
YPFY	≤ 0.25
THMY	0.601
DKPN	≤ 0.25
VASK	≤ 0.25

Variant	enrichment ratio
SNGK	≤ 0.25
VDHF	≤ 0.25
HLYQ	≤ 0.25
WFLM	≤ 0.25
QLML	≤ 0.25
NWIG	≤ 0.25
TTDN	≤ 0.25
HFVD	≤ 0.25
EDIP	≤ 0.25
MLES	≤ 0.25
QFVH	≤ 0.25
WCYF	≤ 0.25
CLRD	≤ 0.25
VMLW	≤ 0.25
FGYD	≤ 0.25
LDGY	≤ 0.25
MTVG	≤ 0.25
TNSA	10.8
MVGS	≤ 0.25
SAQY	1.82
TIRG	≤ 0.25
DRWY	≤ 0.25
MGQG	≤ 0.25
TWTD	≤ 0.25
RWVD	≤ 0.25

Variant	enrichment ratio
FEDW	≤ 0.25
QKAC	≤ 0.25
VWCC	≤ 0.25
LFAV	≤ 0.25
WHWM	≤ 0.25
GKQN	≤ 0.25
HSDA	≤ 0.25
MCLR	≤ 0.25
PMEG	≤ 0.25
YYED	≤ 0.25
KCGH	≤ 0.25
TFSP	≤ 0.25
FQAG	≤ 0.25
GMKH	≤ 0.25
AFLE	≤ 0.25
MMCG	≤ 0.25
EADP	≤ 0.25
DFGQ	≤ 0.25
HSIT	≤ 0.25
WHAN	≤ 0.25
VGHW	≤ 0.25
RGNE	≤ 0.25
RFHD	≤ 0.25
YHDE	≤ 0.25
KYVD	≤ 0.25

Variant	enrichment ratio
ICII	≤ 0.25
HCDK	≤ 0.25
YCVF	≤ 0.25
NARY	≤ 0.25
HECK	≤ 0.25
FQTP	≤ 0.25
NGGS	≤ 0.25
HWRT	≤ 0.25
IPQY	≤ 0.25
YCNQ	≤ 0.25
WFTD	≤ 0.25
GGVC	≤ 0.25
MKQP	≤ 0.25
HPEW	≤ 0.25
YRHR	≤ 0.25
NYME	≤ 0.25
AACV	16.2
AFFE	≤ 0.25
TQAC	4.85
IWAL	≤ 0.25
